# From the supplement of paper PMC3334620
# Over roughly 33,000 sequences, “E-score (-0.5 to 0.5)” has its median near -0.017; the highest 2% begin near 0.3. Some of the results follow.
# Target: T1, Sut1 (UniProt P53032)
# T1 sequence: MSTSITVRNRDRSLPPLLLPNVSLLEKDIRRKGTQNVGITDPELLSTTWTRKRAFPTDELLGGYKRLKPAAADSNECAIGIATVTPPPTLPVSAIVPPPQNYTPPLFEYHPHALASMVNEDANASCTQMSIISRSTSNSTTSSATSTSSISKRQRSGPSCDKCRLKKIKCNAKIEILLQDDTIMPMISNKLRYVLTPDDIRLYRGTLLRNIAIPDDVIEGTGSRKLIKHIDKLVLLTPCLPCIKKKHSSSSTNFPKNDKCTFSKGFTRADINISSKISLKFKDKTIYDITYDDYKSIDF
# Assay: PBM E-score (8-mer binding enrichment) (E-score (-0.5 to 0.5)); higher = stronger / more preferred TF binding; most listed sequences are background and not binding sites
# Settings: protein concentration: 200 nM; construct: GST-full length
# How it was run: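 For each ungapped eight-base word taken together with its reverse complement, the Universal PBM Analysis Suite assigned an E-score. Binding data came from GST-tagged yeast transcription factors, applied at about 100-200 nM, on universal all-10-mer Agilent arrays made double-stranded by primer extension. Fluorescent anti-GST marked bound protein, and scans were normalised with masliner.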
row,Sequence,PBM E-score
1,GACGTTCA,-0.106
2,TGCTTTAA,0.0926
3,CTACATTC,0.146
4,GCCCGTCA,-0.378
5,GGAAAACC,-0.155
6,CTGGAAAC,-0.0136
7,GCTACACA,-0.143
8,CAGCGCGC,-0.173
9,AACGACTC,-0.178
10,ACCGGCAG,-0.318
11,CACTTCTG,-0.216
12,GCTACGAC,-0.123
13,AGCTGCTA,-0.129
14,CACTAATC,0.215
15,CATTTTTA,0.0566
16,AATGAATC,0.00339
17,CATGAGTC,-0.0171
18,TAGAGCCA,-0.239
19,TACATGCA,-0.0893
20,AACGAATC,0.142
21,CCAGCCTA,-0.336
22,CCGTGTTC,0.11
23,TACTCAAA,0.131
24,ACTTTGCA,0.133
25,ACCGATCA,0.12

row,Sequence,PBM E-score
1,ATTGGTAC,0.111
2,ACCCAACT,-0.145
3,CAATAAAC,0.169
4,AATTGTTA,0.272
5,CAAAAACA,0.0332
6,AATGCTCG,0.0401
7,AACCCCGC,0.187
8,CCCTTCCA,-0.145
9,ACGATATC,0.082
10,GATTGAAC,0.00278
11,ACATATCC,0.107
12,ACTGTTCC,0.0578
13,TAGATGCA,-0.00816
14,GAGCCTCC,-0.0929
15,AGCTTTGC,0.00053
16,ACGAGAAA,0.158
17,AAGTCCCG,0.0188
18,AAATTGTC,0.0917
19,AAGTTAAT,0.272
20,ACGTTACA,0.0879
21,CGGGCTAG,-0.0775
22,GGTGGAAC,0.0659
23,TCTCGAAA,0.0302
24,AACAGCGG,-0.0307
25,AGTCGCGG,0.0263

row,Sequence,PBM E-score
1,CACTAGAG,-0.0355
2,TGCGGAAA,0.149
3,GATGAGCA,0.0423
4,CAATTGCA,-0.0697
5,ACGGACGT,0.00936
6,CACAAAGC,-0.122
7,AATAGAAA,0.167
8,GTCCGCAC,0.247
9,ATGTGCGC,-0.0669
10,CCCGACCA,-0.0857
11,CGCTCGGC,-0.00952
12,AGGCGTAG,-0.152
13,CGGCTTCA,0.0568
14,CAGTGGAG,0.0447
15,ACAAGCAG,0.0716
16,CACTTGCG,-0.0968
17,CCTCTCAA,-0.0081
18,GGTTCGAA,0.14
19,CAGTGAGG,-0.304
20,CCACCTTC,-0.24
21,CCCCGCAA,0.034
22,CGGATTTC,0.211
23,GAACCCTA,-0.0467
24,AGAGTTTC,-0.0457
25,CAGGAGTA,-0.157

row,Sequence,PBM E-score
1,AAATCTCG,0.179
2,TCAGGGGA,-0.213
3,AGTCCCAT,-0.214
4,TCTGTCCA,0.0543
5,AAGCCAGC,-0.16
6,CCGGCCTA,0.0314
7,CTTCTATC,-0.00493
8,ATCATTAC,0.23
9,ATACTGTG,-0.145
10,ATTACTCG,0.0802
11,ATGTGAGA,0.147
12,CGTGGCTC,-0.207
13,ATAGTCGC,-0.0441
14,CAACCCTA,-0.122
15,CCTCGCCC,-0.307
16,ACCACTCA,-0.156
17,CCGCATTC,-0.0255
18,CGCGGCCA,-0.212
19,AATGGCTG,-0.115
20,AGAACTTG,0.0896
21,CATCCTCC,-0.292
22,GTAGCTTA,0.165
23,ACAAGAAC,0.264
24,TATCTACA,0.107
25,CCGCCATC,-0.0257

row,Sequence,PBM E-score
1,GAGGTAAC,-0.145
2,ACGGGGCT,-0.0661
3,CTAATCAG,0.0614
4,GTTGATTA,0.166
5,CAGCACAA,0.028
6,CACCGAGA,-0.0582
7,AAGCGGGA,-0.0553
8,ACAGCGGA,0.122
9,CCAACTGC,-0.137
10,AACCGCAC,-0.108
11,CTCTACAA,-0.0259
12,GGGTCAGA,-0.289
13,AGATACAA,0.279
14,CATCATTA,0.191
15,CACAATGG,0.0142
16,AGCATATA,0.102
17,AGCGGCGG,0.088
18,GAGCATGC,-0.119
19,TTATATAA,0.358
20,CCTTGATC,-0.208
21,CGCCCCAG,-0.179
22,ACATGAAG,0.0557
23,CATAAACG,-0.0226
24,ACACATCG,-0.0707
25,ATTGCTTA,0.138

row,Sequence,PBM E-score
1,ACCAGAAT,0.0765
2,ATAACGGC,0.00713
3,CTGTCGCA,-0.0571
4,ATTTGCAC,0.0239
5,CAGCTTAG,-0.146
6,GCCCGCCA,-0.227
7,CCACAGCG,-0.173
8,GGCGTCAA,-0.094
9,ATTTTGTG,0.239
10,ACCCGCAT,0.0722
11,CGTACATC,-0.0591
12,ATGAGGGG,-0.364
13,ATACTCAC,0.0457
14,GAGTAAGC,-0.12
15,GCACATGC,-0.208
16,GATTAGAC,0.0621
17,AGCGGACC,0.00064
18,CCGGATTA,0.213
19,GGTGCTAC,-0.0972
20,GAGGTCAA,-0.0984
21,GCGGTCCA,-0.186
22,AGCGTAGG,-0.0355
23,ATCCAACC,0.0521
24,GAAGAGGC,-0.219
25,CGTCCGGC,-0.0125

row,Sequence,PBM E-score
1,CCGGTTCA,-0.00765
2,AAACCGGT,-0.0411
3,AACATCCT,-0.105
4,GCTGGAGA,-0.247
5,GATGCCGA,0.0413
6,GGCGTGAC,-0.197
7,GTATAACA,0.215
8,ACACTTGC,-0.0671
9,GCCGGGTA,-0.268
10,AGACGGCT,-0.121
11,GCTGAGAC,-0.124
12,GATGCAAA,0.0876
13,GCTAATGA,-0.126
14,AGGCCTAT,-0.166
15,CGAGCTAA,0.116
16,CCTTAGAA,-0.182
17,GTTCACAA,0.15
18,AAATGGTA,0.288
19,CTTGATCC,0.0468
20,AAAATGCC,0.0303
21,GATAACTA,0.157
22,CTAGCATA,0.061
23,AAGGAGTC,-0.0614
24,CTGAGCGC,-0.189
25,AACCCGTA,-0.0786

row,Sequence,PBM E-score
1,GCTCGCCC,-0.294
2,AAATCTGC,0.0274
3,ATTGACAC,-0.119
4,ACTGATAC,-0.0584
5,CGGAAGGA,0.0973
6,ATGGTTCA,0.0618
7,TACGTCTA,0.00038
8,GGCCGGGA,-0.0623
9,CAGATAGC,-0.0832
10,AAGTACTT,-0.049
11,AATCACAT,0.139
12,AGGTCGTC,-0.0711
13,ACACAGCC,-0.162
14,CGACACAA,-0.149
15,GCTGCGAA,0.0328
16,AGATCACT,0.194
17,GGTTCTTA,0.16
18,CAGTTGAG,-0.124
19,GACTCTCA,0.158
20,ACACACAT,0.0403
21,GCCTCGGA,0.198
22,GTGCACCA,-0.1
23,ACATAAGC,0.0566
24,ATACTCAG,0.0528
25,AGAGACCT,-0.105

row,Sequence,PBM E-score
1,CCATGATA,0.0658
2,GATTCGGA,0.385
3,ACGTGTCG,-0.12
4,TCCCTCAA,-0.221
5,GCTAGGAC,-0.0531
6,CCTACCCA,-0.21
7,GGATATAA,0.248
8,CATTGGCC,-0.363
9,ATGGTCGC,-0.185
10,CATCTAGA,0.0544
11,ACTTTTAG,0.136
12,TGTTAACA,0.0907
13,CAGCGGGG,-0.149
14,CATGGTAG,-0.0975
15,AAAGACGT,-0.0316
16,GATACAAA,0.112
17,AAAACGGA,0.244
18,CATTGTAC,0.0761
19,CGTATCAC,-0.119
